According to the supplement of paper PMC4166925:
± gives the standard deviation of the averaged measurements. Over roughly 33,000 sequences, “E-score (dimensionless, -0.5 to 0.5)” has its median near -0.049; the highest 2% begin near 0.37. Some of the results follow.

tested on: T1, PmTbr T-box DNA-binding domain (GST fusion); test: PBM E-score of 8-mer (E-score (dimensionless, -0.5 to 0.5)); Tbr is Tbrain of the sea star Patiria miniata (Pm) or the sea urchin Strongylocentrotus purpuratus (Sp); higher = stronger binding preference; most listed sequences are background and not binding sites; conditions: the construct has about 5 more residues each side
T1 sequence: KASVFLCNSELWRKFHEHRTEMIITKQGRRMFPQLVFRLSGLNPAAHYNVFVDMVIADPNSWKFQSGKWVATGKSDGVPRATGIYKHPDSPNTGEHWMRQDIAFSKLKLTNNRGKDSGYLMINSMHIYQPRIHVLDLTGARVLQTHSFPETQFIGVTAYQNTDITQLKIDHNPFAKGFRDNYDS
Description: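 Universal protein-binding microarray (Agilent AMADID 016060, 60-bp probes with a 35-bp variable region) incubated with 200 nM GST-fused Patiria miniata Tbr T-box DNA-binding domain (residues 272-466) in PBS pH 7.5. Scored for every ungapped 8-mer (given with its reverse complement) by the Universal PBM Analysis Suite as E-score (modified Wilcoxon-Mann-Whitney enrichment, range -0.5 to 0.5; >0.45 counts as bound) and Z-score of median probe intensity. Two replicate arrays (datasets 1 and 2).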

Sequence	PBM E-score of 8-mer
AATGAAGA	-0.105 ± 0.049
CCTTCCAG	-0.17 ± 0.067
GGCCCGCA	-0.119 ± 0.05
AGATGCCA	-0.00611 ± 0.051
AGAGGTAA	-0.114 ± 0.044
GATCCGAA	-0.203 ± 0.0092
TATGATCA	-0.0874 ± 0.091
ATGGAACA	-0.123 ± 0.0083
AGGGAAAC	-0.179 ± 0.016
CGTTAAAC	0.178 ± 0.033
CACTAAAA	0.0757 ± 0.1
CCCTTAGC	0.0471 ± 0.014
AGGATCTA	-0.242 ± 0.082
GGAAAAGA	-0.115 ± 0.022
ATTACGGA	-0.278 ± 0.027
GGCCGCAC	0.0673 ± 0.068
AATCCCGT	-0.198 ± 0.019
GATGTAAA	-0.196 ± 0.047
TCGTAACA	0.214 ± 0.0074
GCCGCGCA	0.0422 ± 0.067
ACTCAGGA	-0.0903 ± 0.091
AAAACGTG	0.247 ± 0.069
AAGATCGG	-0.0806 ± 0.13
GCGGTAAC	-0.0299 ± 0.029
CTCCTTGC	-0.127 ± 0.067

Sequence	PBM E-score of 8-mer
GGCCGAAA	-0.125 ± 0.052
AACGAAGA	-0.0342 ± 0.055
AAACGGTC	-0.215 ± 0.024
CCTATGGC	0.137 ± 0.0037
AGAATGGG	-0.105 ± 0.073
GGCAGTGA	-0.0177 ± 0.003
ACTTTCGA	0.092 ± 0.015
GCGTACGC	-0.271 ± 0.032
AAAAGTTA	0.0746 ± 0.034
AATCGGCA	0.105 ± 0.029
CAAAAGAG	-0.0129 ± 0.01
CTCACTGA	-0.0614 ± 0.026
GGGCAGAC	-0.229 ± 0.048
CACCGGCC	-0.137 ± 0.013
CGATGGAC	-0.128 ± 0.039
AATTCAAC	-0.0495 ± 0.094
GACTACGC	-0.0623 ± 0.012
ACTATCCG	0.0513 ± 0.055
CTCCGGAA	-0.0906 ± 0.002
ATATTTGG	-0.0658 ± 0.0069
CCTACAGG	-0.00713 ± 0.024
TCTTTCCA	-0.15 ± 0.0024
CCAGCCCG	-0.162 ± 0.033
ATAACAAG	0.135 ± 0.083
AAAGGTAA	-0.21 ± 0.041

Sequence	PBM E-score of 8-mer
CACGAGAA	0.16 ± 0.057
CTCGTGAA	0.304 ± 0.012
CCATCGGA	-0.262 ± 0.034
GACCTAGC	0.0365 ± 0.092
GCGGTTAA	-0.0858 ± 0.055
GTGAACGA	0.123 ± 0.056
GCTTTTAC	-0.0958 ± 0.037
CCGGCACA	-0.0527 ± 0.09
AGAGGCCG	-0.144 ± 0.0017
ATATAAAA	-0.102 ± 0.0067
ACGGTTTA	-0.0318 ± 0.025
ACTTATCT	0.0528 ± 0.011
ATTGATGC	-0.105 ± 0.0063
CGATCGAG	-0.138 ± 0.031
GCATAACA	0.2 ± 0.047
CTGAATCA	-0.0806 ± 0.082
GCATGGAC	-0.319 ± 0.036
CAGACCGG	-0.136 ± 0.057
CGAGACAC	0.234 ± 0.04
AGGCCAAC	-0.124 ± 0.03
GTTGTTTA	-0.0255 ± 0.029
ATCTTGGA	-0.00237 ± 0.041
ACTCTAGA	0.0643 ± 0.0049
CCCTAATC	-0.0746 ± 0.04
CATGCCCA	-0.134 ± 0.068

Sequence	PBM E-score of 8-mer
ACGAAAGG	-0.058 ± 0.024
GCGGCCGC	-0.00922 ± 0.042
ACGAAGTC	-0.0232 ± 0.071
ACACTCAT	0.26 ± 0.0097
CAACGACG	0.0999 ± 0.029
AGCGTGTG	0.198 ± 0.039
ATAAACGA	-0.189 ± 0.005
ACGGTCGA	-0.175 ± 0.016
CGCATGCG	-0.137 ± 0.05
AACCGTTG	0.136 ± 0.03
CGTGGACA	0.0649 ± 0.0042
ACAGGGCC	-0.133 ± 0.027
CTAGGAAC	-0.0704 ± 0.05
CTACAGCC	-0.28 ± 0.059
AAAACTGC	0.178 ± 0.06
CTGAATGA	-0.037 ± 0.014
AAAGCCGT	0.00793 ± 0.079
GCACGGGC	-0.146 ± 0.0018
ATCTTTTA	-0.0392 ± 0.0051
ACGCGTCT	0.151 ± 0.041
GACGTCAA	0.0558 ± 0.01
AACCCTAA	-0.24 ± 0.0083
ATAGAAGG	0.0407 ± 0.046
AGCCCCTG	-0.276 ± 0.062
GCAAGTGC	0.321 ± 0.043

Sequence	PBM E-score of 8-mer
CTGCGCTC	-0.0738 ± 0.024
AGTGCCCG	-0.00573 ± 0.076
AACGTAAA	-0.16 ± 0.053
ATGATGTG	0.238 ± 0.0093
ATAGGTCC	-0.107 ± 0.048
AGATTTTC	0.0361 ± 0.063
CGTCAGAC	0.0426 ± 0.046
AACGGCGC	0.111 ± 0.047
GTCTTTTA	-0.293 ± 0.013
CGTCCGAA	-0.154 ± 0.043
CACGGCAG	0.145 ± 0.023
TCTCGACA	0.291 ± 0.0033
CACCTAAC	0.408 ± 0.028
CTGGTTTA	-0.0523 ± 0.0055
GCTTTCGA	-0.101 ± 0.042
AGTACACA	-0.0177 ± 0.081
CCACTTCG	0.254 ± 0.028
CAACTGTA	0.0741 ± 0.023
ATGTCAGG	-0.0995 ± 0.032
CCCGAGGA	-0.249 ± 0.021
ATTGTTTC	0.00872 ± 0.0024
CGACGCAG	-0.0974 ± 0.005
TCCCGTAA	-0.228 ± 0.042
AACAGCTG	0.143 ± 0.069
AACTGCAC	-0.0895 ± 0.086

Sequence	PBM E-score of 8-mer
GCTGAAGA	-0.00965 ± 0.017
AGAGAAAG	0.0684 ± 0.065
CAGCTACC	0.0123 ± 0.028
ATTGCTCA	-0.196 ± 0.025
CAATCCGG	-0.156 ± 0.057
AGATTGTG	0.12 ± 0.0052
ATTTGCTC	-0.171 ± 0.029
CAGCGGAC	-0.185 ± 0.011
AAGACAAA	-0.022 ± 0.03
TAAAGGTA	-0.0352 ± 0.019
CTTTGATC	-0.243 ± 0.0065
CACTAAAG	0.0928 ± 0.034
ATACCTCA	0.0693 ± 0.043
ATTACAAC	0.0578 ± 0.049
CTGGATTC	-0.168 ± 0.033
CAGCCCTG	-0.294 ± 0.015
ACTTCCTC	-0.105 ± 0.012
GCTCCCAC	-0.129 ± 0.041
AGCTGCCA	0.18 ± 0.026
CAAACTAC	-0.105 ± 0.015
CGTTCCGC	-0.165 ± 0.053
CCAGATCG	-0.0111 ± 0.037
CGCAACAG	0.0766 ± 0.031
CCCACTTA	0.125 ± 0.012
ATTTTCAA	-0.116 ± 0.085

Sequence	PBM E-score of 8-mer
ACATAGAA	-0.0327 ± 0.1
AAGTCGGC	-0.106 ± 0.012
AATTTACG	0.00998 ± 0.098
ACCAGTCG	-0.00829 ± 0.055
ATCGTGTC	0.192 ± 0.028
CAGAGAAA	0.122 ± 0.043
GGTACGAA	0.137 ± 0.025
AGGCGAAT	-0.177 ± 0.025
GCTCACAC	0.424 ± 0.01
GAGATGCA	-0.227 ± 0.071
ATGCTGGG	-0.226 ± 0.066
CGCTTGAA	-0.191 ± 0.056
CAATCCCA	-0.116 ± 0.062
ATACATGG	-0.0525 ± 0.051
ACGTGAGG	0.159 ± 0.04
ATTAATGA	-0.228 ± 0.05
ATCAGAGG	-0.0373 ± 0.014
AAACAATC	-0.141 ± 0.063
AGGGGCGC	0.0211 ± 0.039
AAACTTTC	-0.0307 ± 0.056
AAGGAGCC	0.00965 ± 0.022
ACAGGCGT	0.299 ± 0.04
